Results: PubChem BioAssay (Tox21)
Records with an inconclusive call do not appear. Unless noted, calls come from the whole dose curve; as a rule, active = well fitted curve in the direction sought with a large enough effect in the repeat runs; inconclusive = weak or mixed curves; inactive = no such curve, though single readings can be large; an effect the other way counts as inactive or inconclusive. More than one record can exist for a structure, and the calls need not agree. Certain results were filed several times, with different values. They are shown here; other results are not. The source may hold further records. Results that share an entry repeat one measurement across runs, samples, wells, individuals or studies. Marks in square brackets tell the records apart. Letters hold for one entry only.

Columns and labels:
[1] = qHTS assay to identify small molecule antagonists of the androgen receptor (AR) signaling pathway using the MDA cell line - cell viability counter screen (AID 743041; note: nearly all actives have a fitted effect of over 45% in size)
Outline: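 Using the breast carcinoma line MDA-kb2 AR-luc, test chemicals were co-incubated with R1881 for 16 h; CellTiter-Fluor reagent, added at 15.5 h, provided a fluorescence measure of live cells.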

[2] = qHTS assay to identify small molecule antagonists of the thyroid receptor (TR) signaling pathway (AID 743065); note: nearly all actives have a fitted effect of over 55% in size
Outline: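 Antagonism measured as loss of luciferase signal in GH3 cells stably carrying a TRE-luciferase reporter, co-treated with compound and T3 (1 nM final) for 23.5 h at 37 C. Viability was read in the same well by CellTiter-Fluor.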

[3] = qHTS assay for small molecules that induce genotoxicity in human embryonic kidney cells expressing luciferase-tagged ATAD5 - cell viability (AID 651634; calls by dose curve; note: nearly all actives have a fitted effect of over 25% in size)
Outline: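 Cytotoxicity counter-readout: after 15.5 hr compound treatment at 37C, live-cell protease activity in ATAD5-luciferase HEK293T cells measured by CellTiter-Fluor fluorescence, 30 min development at 37C.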

[4] = qHTS assay to identify small molecule antagonists of the glucocorticoid receptor (GR) signaling pathway - cell viability counter screen (AID 720693); note: nearly all actives have a fitted effect of over 55% in size
[5] = qHTS assay to identify small molecule agonists of the constitutive androstane receptor (CAR) signaling pathway - cell viability counter screen (AID 1224836); note: nearly all actives have a fitted effect of over 45% in size
Outline: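 Cell viability multiplexed with the CAR agonist screen: CellTiter-Fluor fluorescence after 23 hr at 37 C. HepG2-CYP2B6-hCAR cells got compounds at 15 concentrations with PK11195 at 0.75 uM final.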

[6] = qHTS assay to identify small molecule antagonists of the constitutive androstane receptor (CAR) signaling pathway - cell viability counter screen (AID 1224837); note: nearly all actives have a fitted effect of over 45% in size
Outline: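 Cytotoxicity counter-screen: CellTiter-Fluor fluorescence after 23 h compound exposure (15-point qHTS) in double-stable HepG2-CYP2B6-hCAR cells, with 50 nM CITCO added.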

[7] = A CellTox Green Cytotoxicity Assay to monitor cytotoxicity in HEK293 cells - 24 hour (AID 1224875); note: nearly all actives have a fitted effect of over 45% in size
Outline: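 Fluorescence from a DNA-binding dye excluded by viable cells was measured repeatedly in the same HEK293 wells (600 cells/well) during continuous compound exposure at 37 C. Each assay gives one read point: 0, 8, 16, 24, 32 or 40 h.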

[8] = A CellTox Green Cytotoxicity Assay to monitor cytotoxicity in HEK293 cells - 16 hour (AID 1224888); note: nearly all actives have a fitted effect of over 35% in size
From the text: National Center for Advancing Translational Sciences [NCATS]
NIH Chemical Genomics Center [NCGC]
U.S. Environmental Protection Agency [EPA]
National Institutes of Environmental Health Sciences [NIEHS]
National Toxicology Program [NTP]
Cell-based models are critical for drug discovery. Determining the natural cytotoxic effects resulting from test compounds is an essential research activity. A CellTox Green Cytotoxicity Assay to monitor cytotoxicity in real time of continues cell culture during 40 hours of the compound treatment was used to screen Tox21 10K library compounds in Hek293 cells. CellTox Green Cytotoxicity Assay is a nonlytic, homogeneous, biofluorescent method to measure cytotoxicity in cell culture after experimental manipulation. The assay system uses a proprietary asymmetric cyanine dye that is excluded from viable cells but preferentially stains the dead cell's DNA. […] Viable cells produce no appreciable increases in fluorescence. Therefore, the fluorescence signal produced by the binding interaction with dead cell DNA is proportional to cytotoxicity.
The mixture of Hek293 cell suspension and reagents were dispensed at 600cells/6 ul/well in 1536-well tissue culture treated black solid bottom plates using a Multidrop dispenser. […] The fluorescence intensity were measured at 0h, 8h, 16h, 24h, 32h and 40h time points using ViewLux plate reader during compound treatment.

[9] = qHTS assay to identify small molecule antagonists of the peroxisome proliferator-activated receptor gamma (PPARg) signaling pathway - cell viability counter screen (AID 743194); note: nearly all actives have a fitted effect of over 55% in size
Outline: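 Viability was measured as CellTiter-Glo luminescence in GeneBLAzer PPARg UAS-bla HEK293H cells. These cells had been exposed 17 h at 37 C to compounds together with rosiglitazone at 50 nM final, with the beta-lactamase readout taken in the same wells.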

[10] = qHTS assay to identify small molecule antagonists of the TGF-beta/Smad signaling pathway - cell viability counter screen (AID 1346824); note: nearly all actives have a fitted effect of over 50% in size
Outline: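 Cytotoxicity counter-screen run in the same wells as the beta-lactamase Smad reporter read: CellTiter-Glo luminescence after 30 min at room temperature. HEK 293T SBE-bla cells had 5 hr compound exposure at 37 C with TGF-beta1 (0.25 ng/mL stock).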
Potency is the fitted concentration of half-maximal effect.

Structure (SMILES): Cc1cc(N=Nc2ccccc2C)ccc1N
- Potency [1]: active: 61.1 µM [sample A] and inactive [sample B]

Structure (SMILES): C[C@H]1CC[C@@H]2[C@@H](C)[C@H]3[C@H](C[C@H]4[C@@H]5CC=C6CC(O[C@@H]7O[C@H](CO)[C@H](O)[C@H](O[C@@H]8O[C@H](CO)[C@@H](O)[C@H](O)[C@H]8O)[C@H]7O[C@H]7O[C@@H](C)[C@H](O)[C@@H](O)[C@H]7O)CC[C@]6(C)[C@H]5CC[C@]34C)N2C1 (some centres not stated)
- Potency [1]: active: 24.8 µM [sample A] and inactive [sample B]
- Potency [2]: active: 23.7 µM [sample A] and inactive [sample B]

Structure (SMILES): CC[C@H](C)[C@H]1O[C@]2(C=C[C@@H]1C)C[C@@H]1C[C@@H](C/C=C(\C)[C@@H](O[C@H]3C[C@H](OC)[C@@H](O[C@H]4C[C@H](OC)[C@@H](O)[C@H](C)O4)[C@H](C)O3)[C@@H](C)/C=C/C=C3\CO[C@@H]4[C@H](O)C(C)=C[C@@H](C(=O)O1)[C@]34O)O2
- Potency [3]: inactive [sample A] and active: 36.1 µM [sample B]
- Potency [4]: inactive [sample A] and active: 10.3 µM [sample B]

Structure (SMILES): CC(C)CC(C)(c1ccc(O)cc1)c1ccc(O)cc1
- Potency [5]: active: 61.3 µM [sample A] and inactive [sample B]
- Potency [6]: active: 61.3 µM [sample A] and inactive [sample B]
- Potency [7]: active: 49.1 µM [sample A] and inactive [sample B]
- Potency [8]: active: 39 µM [sample A] and inactive [sample B]

Structure (SMILES): Clc1ccc(COC(Cn2ccnc2)c2ccc(Cl)cc2Cl)cc1 (configuration not stated)
- Potency [7]: active: 45.7 µM [sample A] and active: 48.8 µM [sample B] and inactive [sample C]
- Potency [8]: active: 48.8 µM [sample A] and inactive [sample B]

Structure (SMILES): Clc1ccc(C(c2ccc(Cl)cc2)C(Cl)(Cl)Cl)cc1
- Potency [9]: active: 49 µM [sample A] and inactive [sample B]
- Potency [7]: active: 55.3 µM [sample A] and inactive [sample B] and inactive [sample C]

Structure (SMILES): Oc1ccc(C(c2ccc(O)cc2)(C(F)(F)F)C(F)(F)F)cc1
- Potency [7]: active: 38.7 µM [sample A] and inactive [sample B]

Structure (SMILES): N#CSCSC#N
- Potency [10]: active: 50.1 µM [sample A] and inactive [sample B]

Structure (SMILES): CCCCN(CCCC)C(=S)[S-].CCCCN(CCCC)C(=S)[S-].[Zn+2]
- Potency [3]: inactive [sample A] and active: 61.1 µM [sample B]

Structure (SMILES): O=c1[nH]c2ccccc2n1C1CCN(CCCC(c2ccc(F)cc2)c2ccc(F)cc2)CC1
- Potency [10]: active: 49 µM [sample A] and inactive [sample B]
